# Experimental data: PubChem BioAssay AID624296 (National Center for Advancing Translational Sciences (NCATS), 2012)
# Hit rate of the full screen: of about 350,000 compounds, about 9,900 (2.8%) were called active. This list was built around the results that the source calls inconclusive (neither active nor inactive); the mix of calls is not that of the screen. Calls come from the whole dose curve; as a rule, active = well fitted activation curve with a large enough effect; inconclusive = small, poorly fitted or top-dose-only effect; inactive = no such curve, though single readings can be large or run the other way. Potencies of inconclusive entries are left out as doubtful fits.
# Test: A quantitative high throughput screen for small molecules that induce DNA re-replication in MCF 10a normal breast cells. Note: nearly all actives have a fitted effect of over 50% in size.
# Conditions: MCF 10A DNA re-replication, Hoechst nuclear intensity, 48 h; series mostly up to 46.1 µM
# Potency is the fitted concentration of half-maximal effect; tags give direction and shape of the fitted curve.
row,SMILES,Potency
1,Clc1ccc(CO/N=C2\CCCc3nonc32)c(Cl)c1,"inconclusive [activator, single point]"
2,CCCOc1ccc(NC(=O)CC2C(=O)N(C)C(=S)N2Cc2cccs2)cc1 (stereo not drawn),inactive
3,O=C(NCCCN1CCOCC1)c1ccc2c(c1)N(Cc1ccccc1)C(=O)c1ccccc1S2=O (stereo not drawn),inactive
4,CN1CCN(S(=O)(=O)c2ccc(N(C)Cc3ccc(OC(F)F)cc3)c([N+](=O)[O-])c2)CC1,"inconclusive [activator, partial curve]"
5,CCCCCCOc1ccc(/C(C)=N/NC2=NCCN2)cc1[N+](=O)[O-],"inconclusive [activator, partial curve, poor fit]"
6,CC1CCCCN1C(=O)/C=C/c1ccccc1[N+](=O)[O-] (stereo not drawn),inactive
7,O=C(CNS(=O)(=O)c1c(Cl)cccc1Cl)N1CCCCCC1,inactive
8,CCOC(=O)CNC(=O)C(Cc1ccccc1)NS(=O)(=O)c1cccs1 (stereo not drawn),active: 20.6 µM
9,Cc1ccc(C)c(-c2cc(C(=O)Nc3sc(C)c(C)c3C(N)=O)c3ccccc3n2)c1,"inconclusive [activator, full curve, poor fit]"
10,CC(=O)Nc1ccc(NS(=O)(=O)c2ccc3ccccc3c2)cc1,"inconclusive [activator, single point]"
11,O=S(=O)(NCc1ccccc1)c1ccc(-c2cnc(C3CC3)o2)cc1,"inconclusive [activator, single point]"
12,O=c1ccnc(SCCC(F)=C(F)F)[nH]1,"inconclusive [activator, full curve, poor fit]"
13,Cc1ccc(C(=O)Nc2ccccc2C(=O)Nc2ccccn2)cc1Cl,"inconclusive [activator, partial curve, poor fit]"
14,CCN(CC)CCCNC(=O)CCC(=O)Nc1ccc2nc(N3CCC(C)CC3)cc(C)c2c1,"inconclusive [activator, single point]"
15,Cc1oc(-c2ccccc2Cl)nc1CS(=O)CC(=O)N1CCN(c2ccccc2)CC1 (stereo not drawn),inactive
16,CC(C)(C)c1ccc(NC(=O)c2cc[n+]([O-])cc2)cc1,inactive
17,N#Cc1ccccc1OCC(=O)OCC(=O)c1ccc2c(c1)NC(=O)CO2,"inconclusive [activator, partial curve, poor fit]"
18,CC(=O)Nc1ccc(Oc2cc(N)cc([N+](=O)[O-])c2)cc1,inactive
19,N#C/C(=C/c1cn(-c2ccccc2)nc1-c1cccc(S(=O)(=O)N2CCCC2)c1)C(=O)NCc1ccco1,"inconclusive [activator, partial curve, poor fit]"
20,CC(=O)c1c(N2CCN(c3ccccc3)CC2)nc(=S)n(-c2ccccc2)c1C,active: 20.6 µM
21,CCCNC(=O)N1CCN(S(=O)(=O)c2ccc3c(c2)OCCO3)CC1,inactive
22,O=C(Cn1c(=O)oc2cc(S(=O)(=O)N3CCCC3)ccc21)Nc1ccc(C(F)(F)F)cc1,"inconclusive [activator, partial curve, poor fit]"
23,CCCn1c(NC(=O)C2CCN(S(=O)(=O)c3cccs3)CC2)nc2ccccc21,"inconclusive [activator, single point]"

row,SMILES,Potency
1,COc1ccc(-c2noc(CCC(=O)N3CCN(c4ccccc4Br)CC3)n2)cc1,"inconclusive [activator, partial curve, poor fit]"
2,O=C(CCC(=O)N1CCN(S(=O)(=O)c2ccc3ccccc3c2)CC1)Nc1cc(Cl)cc(Cl)c1,"inconclusive [activator, single point]"
3,O=C1C=C(NC2=CC3OC(c4ccccc4)OCC3OC2=O)CCC1 (stereo not drawn),"inconclusive [activator, single point]"
4,N#CC1=C(N)OC(c2ccccc2)=C(C#N)C1c1ccc2c(c1)OCO2 (stereo not drawn),"inconclusive [activator, single point]"
5,O=c1[nH]c(/C=C/c2ccc(OC(F)F)cc2)nc2c1cnn2-c1ccccc1,active: 14.6 µM
6,Cc1onc(-c2c(F)cccc2Cl)c1C(=O)Nc1sc2c(c1C#N)CCC(C(C)(C)C)C2 (stereo not drawn),"inconclusive [activator, single point]"
7,COc1ccccc1NC(=S)NC(=O)Cc1ccccc1,"inconclusive [activator, single point]"
8,O=C(CCSCc1ccccc1Cl)N1CCN(c2cccc(Cl)c2)CC1,"inconclusive [activator, partial curve, poor fit]"
9,O=C(c1cc(-c2ccccc2)nc2ccccc12)N1CCCC1,inactive
10,COc1ccc(C2CC(c3ccccc3)=NN2c2ccccc2)c(C(=O)O)c1OC (stereo not drawn),active: 18.4 µM
11,Cc1nc(N[C@@H](Cc2ccccc2)C(=O)O)c2oc3ccccc3c2n1,"inconclusive [activator, partial curve, poor fit]"
12,COc1ccccc1N=CC1=C(O)CC(c2ccccc2)CC1=O (stereo not drawn),"inconclusive [activator, partial curve]"
13,O=C(NC1=NCCS1)c1ccc(Cl)c(S(=O)(=O)N2CCCC2)c1,"inconclusive [activator, full curve, poor fit]"
14,O=C(OCC(=O)N1CCCCC1)c1cc(S(=O)(=O)N2CCOCC2)c(Cl)cc1Cl,inactive
15,O=C(CSc1nc2ccccc2s1)N/N=C/c1cc([N+](=O)[O-])ccc1O,inactive
16,C=CCn1c(-c2ccc3[nH]c(C)c(C)c3c2)n[nH]c1=S,"inconclusive [activator, partial curve, poor fit]"
17,COCC1CCN(C(=O)c2cc(COc3ccc(OC)c4ccccc34)on2)C1 (stereo not drawn),"inconclusive [activator, single point]"
18,O=C(CSc1ncnc2ccccc12)Nc1cccc(S(=O)(=O)N2CCCC2)c1,"inconclusive [activator, partial curve, poor fit]"
19,CC(Oc1ccc(Cl)cc1Cl)C(=O)NCCCN(C)C (stereo not drawn),"inconclusive [activator, partial curve, poor fit]"
20,Cc1cc(SCC(=O)c2cccc([N+](=O)[O-])c2)nc(=O)[nH]1,"inconclusive [activator, single point]"
21,Cc1cccc(C)c1OCC(=O)Nn1c(=O)[nH]c2ccccc2c1=O,inactive
22,O=C(Nc1c2ccccc2nc2ccccc12)C(Cl)(Cl)Cl,active: 13 µM
23,c1ccc2nc(N3CCOCC3)c(N3CCOCC3)nc2c1,"inconclusive [activator, partial curve, poor fit]"

row,SMILES,Potency
1,Cc1ccc(NC(=O)C2CCN(S(=O)(=O)c3c(C)[nH]c(=O)[nH]c3=O)CC2)cc1,"inconclusive [activator, single point]"
2,Cn1cnnc1SCc1ccc(C(=O)N/N=C(\CCC(=O)O)c2ccc(C(C)(C)C)cc2)cc1,inactive
3,Cc1ccc(Cn2nnc3c(=O)[nH]c(C4CCCN(S(=O)(=O)c5ccc(F)cc5)C4)nc32)cc1 (stereo not drawn),"inconclusive [activator, partial curve, poor fit]"
4,COc1cc(CNc2ccc3[nH]c(=O)[nH]c3c2)ccc1OCc1ccccc1F,inactive
5,O=C(NC(=S)Nc1cccc(CO)c1)c1ccc(-c2ccccc2)cc1,"inconclusive [activator, single point]"
6,COc1cc2c(cc1OC)C(c1cc(C)ccc1C)CC(=O)N2 (stereo not drawn),active: 0.651 µM
7,CC1CCCN(C(=O)c2ccc3c(=O)n(C4CCCC4)c(=S)[nH]c3c2)C1 (stereo not drawn),"inconclusive [activator, partial curve, poor fit]"
8,O=C(Cn1ccc(C(F)(F)F)n1)N=Nc1c(O)[nH]c2ccccc12,inactive
9,COC(=O)c1ccc(Cn2cc(/C=C\[N+](=O)[O-])c3ccccc32)o1,"inconclusive [activator, single point]"
10,Nc1ncc(-c2ccccc2)c(-c2ccc(OCc3ccccc3)cc2O)n1,active: 20.6 µM
11,Cc1ccc(OCC(=O)N/N=C/C=C/c2ccco2)cc1,"inconclusive [activator, single point]"
12,CCOC(=O)c1sc(-c2ccc(C(F)(F)F)cc2)nc1O,active: 16.4 µM
13,O=C(NC1CCCCC1)c1ccc(CS(=O)(=O)Cc2ccccc2F)o1,inactive
14,O=C(O)c1ccc(N=c2oc3cc(O)ccc3cc2C(=O)NCc2ccccc2)cc1,"inconclusive [activator, single point]"
15,COc1ccc(/C=C/C(=O)OCc2nc3ccccc3c(=O)[nH]2)c(OC)c1,"inconclusive [activator, partial curve, poor fit]"
16,O=C(/C=C/c1ccccc1)C1=C(O)C(=O)N(CCO)C1c1cccc([N+](=O)[O-])c1 (stereo not drawn),"inconclusive [activator, full curve, poor fit]"
17,Cn1c(=O)c2c(nc(CN3CCN(C(c4ccccc4)c4ccccc4)CC3)n2CC(N)=O)n(C)c1=O,inactive
18,COc1ccc(C(O)(C2CCCCC2)C(CN2CCOCC2)c2ccccc2)cc1 (stereo not drawn),"inconclusive [activator, single point]"
19,CN1CCN(S(=O)(=O)c2ccc(Cl)cc2)CC1,inactive
20,CCOC(=O)CC/C(=N\NC(N)=O)c1ccc(OC)c(Cl)c1,inactive
21,CCc1nc(SCC(=O)NC2CCCC2)c2oc3ccccc3c2n1,inactive
22,COc1cc(Nc2c3ccccc3nc3ccccc23)cc(OC)c1OC,"inconclusive [activator, single point]"
